The list shows a part of the results. At the low end of the ranking the order means little.

In this experiment the target is SIX1-Q177R homeodomain (UniProt Q15475). Nature of the experiment: universal protein binding microarray. Conditions: Universal all-10-mer PBM (8x60K, AMADID 030236), 300 nM GST-tagged protein, Alexa Fluor 488 anti-GST; buffer, salt, pH and temperature not stated; high values mean tight binding; most listed sequences are background and not binding sites; double strand, one strand shown.
GAGATTGA: the binding signal was -0.0191 E-score. In the case of CCGTATCG, the binding signal came to 0.12 E-score.

As for ACGGTGAC, the binding signal turned out to be 0.0561 E-score.

In the case of CCCTATAA, the binding signal was 0.000415 E-score. As for ATTTGACC, the binding signal is 0.0109 E-score. With GCGAAACC, the binding signal amounted to 0.0372 E-score. With GAAAGGAA, the binding signal was -0.209 E-score.

As to CCATGAGA, the binding signal was 0.0729 E-score. As for CCACATGG, the binding signal came out at 0.0704 E-score. Take GCACCCGC: the binding signal is 0.227 E-score. As for AACGTATT, the binding signal was -0.0221 E-score.

In the case of ACCGGCAC, the binding signal amounted to 0.131 E-score. For ATAGCTTA, the binding signal was -0.139 E-score. Regarding ACGCCGGA, the binding signal is 0.173 E-score. With CGCCAAAG, the binding signal is -0.132 E-score. With ATCGAGGA, the binding signal is -0.131 E-score.

GTTACACA: the binding signal turned out to be 0.267 E-score. Turning to ATGGACCG, the binding signal is -0.292 E-score. The value for AGGATCTA was -0.211 E-score; that for TAGTAAAA was 0.119 E-score; that for AAATTTAC was -0.0569 E-score. On to GGCAACAC, for which the binding signal was determined as 0.414 E-score.

On to ATCCGAGG, for which the binding signal was found to be 0.165 E-score. Regarding ATACTTAA, the binding signal was -0.0615 E-score. As to AAAAGTTA, the binding signal is -0.0323 E-score. Consider AAAGCTTA, for which the binding signal was -0.0637 E-score. For the sequence CGTTTCAG, the binding signal is -0.0291 E-score.

As for GATAAATA, the binding signal is -0.037 E-score. As for GGACCTAA, the binding signal was -0.0981 E-score. For the sequence ATGGCAGA, the binding signal was -0.0548 E-score. Turning to ACTGGATG, the binding signal turned out to be 0.0298 E-score. In the case of ATCGAGCC, the binding signal is -0.0707 E-score. For AAATTCCG the value was -0.193 E-score; for GTATAGGA, -0.117 E-score. For the sequence ATACAGTG, the binding signal was 0.13 E-score. With AAACCGGT, the binding signal was -0.0375 E-score. For CCGGAGCA the value was 0.115 E-score; for CTTCACGA, -0.216 E-score. Take GGCATTGA: the binding signal was -0.171 E-score. Regarding GCCTAACC, the binding signal was -0.202 E-score. AGGAATAC: the binding signal was 0.0317 E-score. In the case of ATCTTTGC, the binding signal was -0.101 E-score.

For the sequence CATCCATC, the binding signal is -0.215 E-score. Turning to GCAATGAC, the binding signal was determined as 0.118 E-score. For TGTACACA, the binding signal was 0.353 E-score.

As for CGACTTAG, the binding signal is -0.0134 E-score.

AAGGCAGC: the binding signal is -0.274 E-score. Take ACGAATAC: the binding signal is -0.047 E-score. Consider GACGGCGA, for which the binding signal is -0.214 E-score. As for AAAGAACC, the binding signal is -0.00478 E-score.

Regarding TCTAATAA, the binding signal is -0.0894 E-score. For ATGATGCC the value was -0.202 E-score; for AGCCACAT, -0.209 E-score; for CCACTACC, -0.00144 E-score. ATCAAGGG: the binding signal was -0.0047 E-score.

Regarding GGTATCGA, the binding signal came out at 0.294 E-score. On to ACAGCGAG, for which the binding signal came to 0.0679 E-score.

As to CGTGGTTC, the binding signal was -0.0641 E-score. As for AGTGAGAG, the binding signal was -0.104 E-score. In the case of GCCAATAC, the binding signal was -0.138 E-score. Consider CCGCGTAA, for which the binding signal amounted to 0.0902 E-score. As to CGTCCTAC, the binding signal came to 0.182 E-score. Take GAACTCCC: the binding signal was determined as 0.146 E-score. Consider AAACTAGC, for which the binding signal is -0.0809 E-score. In the case of GCACTTTA, the binding signal was found to be 0.00768 E-score. For the sequence TCCGCACA, the binding signal was 0.0122 E-score. The value for CGGAATGA was -0.0107 E-score; that for GGTTCCGA was 0.129 E-score; that for CGAACGCA was 0.00338 E-score. With ACGGAGGG, the binding signal was 0.159 E-score. With ATTCCCTG, the binding signal was -0.167 E-score. CTGTGATC: the binding signal is -0.0651 E-score. Take ATAAAGGG: the binding signal is -0.0489 E-score. The value for ATGTGGTG was 0.271 E-score. For CGATGCGC, the binding signal was -0.164 E-score. For CGTGTTGA, the binding signal amounted to 0.358 E-score. The value for GGTCGAGA was -0.0673 E-score. In the case of CCTTCGCA, the binding signal turned out to be 0.0537 E-score. With GCCCCCTA, the binding signal was -0.0563 E-score. CAGGCCTG: the binding signal was -0.318 E-score.

Take CTCACGAG: the binding signal is -0.207 E-score. For the sequence GCTTGAGA, the binding signal is -0.175 E-score. Regarding GCTCACGA, the binding signal was -0.281 E-score.

In the case of CAGATGGC, the binding signal is -0.0219 E-score. On to CATGGTAC, for which the binding signal turned out to be 0.0661 E-score.

For CATCGCCA, the binding signal is -0.0363 E-score. Turning to TGGGGAAA, the binding signal is -0.153 E-score. Consider ACGGTAAT, for which the binding signal is -0.0131 E-score.

Consider GACTAAAC, for which the binding signal is -0.206 E-score. In the case of ATCGTAGA, the binding signal was -0.004 E-score. The value for AAACATTC was -0.207 E-score; that for CCTGCTAC was 0.0495 E-score. The value for AAGACGTC was -0.379 E-score.

On to CCAGCATA, for which the binding signal was -0.0101 E-score.

Take ATCAAAAA: the binding signal is -0.0931 E-score.

Take AGTGGGCC: the binding signal is -0.103 E-score.

Turning to CCCACCAA, the binding signal is 0.135 E-score. For ATTCTTGG the value was -0.132 E-score; for CCTCACGC, 0.01 E-score.

Consider GCAGTGGC, for which the binding signal was -0.213 E-score. With CAATATAA, the binding signal is -0.0998 E-score.

As for CTACTTGC, the binding signal was -0.0385 E-score.

Consider AACCTGCT, for which the binding signal came to 0.102 E-score.

In the case of ACCGTGGG, the binding signal was found to be 0.0607 E-score. Consider TTAATAAA, for which the binding signal is -0.00126 E-score. Regarding GATCCTCA, the binding signal was -0.0107 E-score. For TAGCCCGA, the binding signal is -0.2 E-score. Consider AATTAATG, for which the binding signal stood at 0.00237 E-score. For TATTGTCA the value was -0.0614 E-score; for CAACATAC, 0.0667 E-score. The value for CGACCGCC was 0.00712 E-score. Take CCAGACCC: the binding signal worked out at 0.0644 E-score. The value for AAAATTTG was -0.245 E-score. For CAATGATC the value was -0.0312 E-score.

Regarding CTCACTCC, the binding signal is -0.0604 E-score. For TATTTACA, the binding signal is 0.311 E-score.

For the sequence AATAGACA, the binding signal turned out to be 0.187 E-score.

Consider ACTTAGCG, for which the binding signal is -0.108 E-score. ATCACCGC: the binding signal was -0.0555 E-score. CAGATTTC: the binding signal was -0.332 E-score. As for GCGCAGTA, the binding signal is -0.0857 E-score. For the sequence CTCAGGTA, the binding signal was 0.0623 E-score.

For AATCAAAG, the binding signal is -0.107 E-score. As to ACTTTCAT, the binding signal was -0.206 E-score. As to AGTGCAAA, the binding signal was -0.013 E-score. The value for CCATTGCA was 0.103 E-score; that for AAAGCTAT was -0.287 E-score; that for AAAATGAG was -0.194 E-score.

For AACATCTG, the binding signal is -0.275 E-score. The value for AGTATACG was -0.178 E-score; that for GTATGATA was 0.18 E-score. As for AGTCAGAA, the binding signal was -0.144 E-score. As for CACCCAAG, the binding signal was found to be 0.366 E-score.

With AACTAGGA, the binding signal came to 0.027 E-score. As for CGAGCATA, the binding signal was -0.09 E-score.

As to ACGCACAA, the binding signal is -0.126 E-score. Consider CGTGAGGC, for which the binding signal was -0.165 E-score.

For the sequence CAGAGCGC, the binding signal was -0.141 E-score. The value for GGCTTTAC was -0.225 E-score; that for ATTGCTGG was -0.128 E-score.

As for ACCGGATC, the binding signal came to 0.189 E-score.

CGCCGCAG: the binding signal is -0.0529 E-score.

Take CATAGCGA: the binding signal is -0.1 E-score. Regarding GACGTCTA, the binding signal is -0.0244 E-score. For the sequence GATGTAGC, the binding signal was -0.081 E-score. For the sequence CCACGGCG, the binding signal is -0.0684 E-score. As for ATTTAGAA, the binding signal is -0.188 E-score. Regarding CCGCATCC, the binding signal is -0.123 E-score. On to GTGACCTA, for which the binding signal was -0.123 E-score. For the sequence CCATAAAG, the binding signal is -0.232 E-score. The value for CGTGAGGA was -0.152 E-score; that for CGAGTTTC was -0.152 E-score; that for GATTACCC was 0.175 E-score.

As for ACGAGGGA, the binding signal was determined as 0.0826 E-score.

As to AGGTCTAG, the binding signal was -0.117 E-score. Consider AGCAGGAT, for which the binding signal is -0.0422 E-score. As for CAGACGCG, the binding signal turned out to be 0.00919 E-score.

As for AACTTAGA, the binding signal was determined as 0.0858 E-score.

Turning to ATATCCCG, the binding signal was -0.0456 E-score. As for GTGTATAA, the binding signal was 0.376 E-score. As for GTTGCGGA, the binding signal was -0.0246 E-score.

Take CCCGTCGC: the binding signal stood at 0.0281 E-score. Take AACATTAG: the binding signal was -0.0907 E-score. Turning to CTTGTTCA, the binding signal came out at 0.106 E-score. For ATTAGACC, the binding signal was -0.0798 E-score. The value for CCTCGGGA was 0.136 E-score; that for AAGCAGAT was -0.209 E-score. For CCTGAGAG the value was 0.0315 E-score; for AACCGCTT, -0.184 E-score.

Regarding AAATTGTC, the binding signal was -0.0336 E-score. The value for CCGTCTAC was -0.0352 E-score.

Regarding GGTTAACC, the binding signal is -0.0673 E-score.

(Values after publication PMC10668032.)
